# Assay results reported in PubChem BioAssay AID686978 (National Center for Advancing Translational Sciences (NCATS), 2013).
# “And” between values parts separate entries of the source, which are not always exact repeats. Equal entries are not always repeated. Among all 420,000 compounds or so, about 64,000 (15%) were called active. The inconclusive results got no clear call from the source; some entries with a clear call stand among them for comparison. Calls come from the whole dose curve; as a rule, active = well fitted inhibition curve with a large enough effect; inconclusive = small, poorly fitted or top-dose-only effect; inactive = flat fitted curve, though single readings scatter. Where the call is inconclusive, the potency comes from a doubtful curve fit.
# Test: qHTS for Inhibitors of human tyrosyl-DNA phosphodiesterase 1 (TDP1): qHTS in cells in absence of CPT; note: nearly all actives have a fitted effect of over 55% in size
# Conditions: DT40 Tdp1-/- hTDP1 cells, no CPT, ATP luminescence, 48 h; activity change, negative = growth inhibition: at 46.2 µM (top of the series) unless noted
# Outline: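 Seeded 400 DT40-hTDP1 cells/well (vehicle DMSO, no 20 nM CPT); pinned compounds; ≥48 hr at 37 °C; CellTiter-Glo luminescence as viability measure.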
# % is set by controls: 0 for no effect and ±100 for the full control effect; potency is the fitted concentration of half-maximal effect; tags give direction and shape of the fitted curve.
SMILES,Potency,"activity change, negative = growth inhibition"
CS(=O)(=O)N1CCC(Oc2cccc(C(=O)NCCCOc3cccnc3)c2)CC1,"inconclusive: 16.4 µM [inhibitor, single point]",–
C1=Nc2c(Nc3ccccc3)ncnc2Oc2ccccc21,active: 10.3 µM,–
CC(=O)c1c(N2CCN(c3ccc(F)cc3)CC2)nc(=S)n(-c2ccccc2)c1C,active: 20.6 µM,–
CCN1CCN(C(=S)NC(=O)c2cccc(Br)c2)CC1,"inconclusive: 23.1 µM [inhibitor, single point]",–
CCC(C(=O)N1CCc2ccccc2C1)n1nc(C)n2c(cc3occc32)c1=O (configuration not stated),"inconclusive: 23.1 µM [inhibitor, partial curve]",–
CCOc1cccc(NC(=O)c2cccc(F)c2)c1,–,inactive: -5.41%
CCn1c(O)c(N=NC(=O)c2ccc(CSc3nncn3C)cc2)c2ccccc21,active: 14.6 µM,–
O=C(NCCc1cn2ccccc2n1)C1CCCCC1,–,inactive: 7.53%
Cc1c(C(=O)NCc2ccc([N+](=O)[O-])cc2)sc(=O)n1Cc1ccc2c(c1)OCO2,"inconclusive: 23.1 µM [inhibitor, single point]",–
CC(C)(C)NS(=O)(=O)c1ccc2nc(NC(=O)Cc3cccs3)sc2c1,active: 14.6 µM,–
COc1ccc(S(=O)(=O)NCCc2sc(-c3cccc(F)c3)nc2C)cc1,active: 20.6 µM,–
CC(=O)N(CC#CCN(C(C)=O)c1ccccc1)c1ccccc1,"inconclusive: 18.4 µM [inhibitor, single point]",–
O=C(Cn1cc(S(=O)(=O)N2CCN(c3ccccc3F)CC2)c2ccccc2c1=O)Nc1ccc(F)cc1Cl,–,inactive: -11.6%
CCOC(=O)c1ccc(NC(=S)NCCCN2CCOCC2)cc1,–,inactive: -0.372%
CC(C)c1ccc(NC(=O)c2ccc(F)c(S(=O)(=O)N3CCN(c4ccccc4F)CC3)c2)cc1,"inconclusive: 23.1 µM [inhibitor, partial curve, poor fit]",–
CNC(=O)c1c(NC(=O)C2=COCCO2)sc2c1CCCC2,–,inconclusive: -32.7% [inhibitor]
CNC(=S)Nc1ccc2nc(C)oc2c1,–,inactive: 3.69%
Cc1ccccc1OCCC(=O)OCC(=O)NCCc1ccc(S(N)(=O)=O)cc1,–,inactive: 10.2%
CCOC(=O)[C@H]1[C@H]2COc3ccc(Br)cc3[C@@H]2N2C(=O)CN(Cc3ccccc3)C(=O)[C@@]12C,active: 25.9 µM,–
OCCN(CCO)CC(O)COc1ccc(C23CC4CC(CC(C4)C2)C3)cc1 (configuration not stated),active: 7.31 µM,–
COc1cc2c(C(=O)N3CCN(C4CCCCC4)CC3)cn(CC(C)C)c(=O)c2cc1OC,–,inconclusive: -32.2% [inhibitor]
CCN(C(=O)CSc1ccccn1)C1CCCCC1,active: 14.6 µM,–
O=C(c1ccco1)N1CCN(C(=O)c2ccco2)CC1,–,inactive: 1.41%
COc1ccc(C2=Nc3ccccc3N(C(=O)c3ccc(C)cc3)C2C(=O)NCc2ccccc2)cc1 (configuration not stated),"inconclusive: 20.6 µM [inhibitor, single point]",–

SMILES,Potency,"activity change, negative = growth inhibition"
COc1cc(OC)cc(C(=O)OCC(=O)Nc2nnc(-c3ccccc3)o2)c1,"inconclusive: 23.1 µM [inhibitor, partial curve]",–
O=C1Nc2ccccc2N=C(c2ccc3c(c2)OCO3)C1N(CCc1ccccc1)C(=O)CSc1ncccn1 (configuration not stated),"inconclusive: 18.4 µM [inhibitor, single point]",–
CCCS(=O)(=O)NC(=O)C1(C)CCN1C(=O)Cc1ccc(-c2ccccc2)cc1 (configuration not stated),–,inactive: -13.3%
COc1ccc(/C=C/C(=O)c2cccs2)c(OC)c1,active: 2.37 µM,–
COc1ccc([N+](=O)[O-])cc1NC(=O)CSCc1ccc(Br)cc1,"inconclusive: 29.1 µM [inhibitor, single point]",–
CCOC(=O)c1ccc(N2C(=O)Cc3ccccc3C2=O)cc1,–,inconclusive: -37.5% [inhibitor]
CCCOc1ccc(-c2cccc(NS(=O)(=O)c3ccc(CC)cc3)c2)nn1,active: 18.4 µM,–
O=C(CN1C(=O)NC2(CCCC2)C1=O)Nc1cc(Cl)ccc1Oc1ccccc1,"inconclusive: 29.1 µM [inhibitor, single point]",–
CCCSCCCNC(=O)CN1C(=O)CCn2nc(-c3cn(C)c4ccccc34)cc21,"inconclusive: 29.1 µM [inhibitor, single point]",–
CCCCNC(=O)CSc1nc2cc(OC)c(OC)cc2c(=O)n1Cc1ccc(OC)cc1,–,inconclusive: -30.4% [inhibitor]
Cc1ccc2nc(NC(=O)c3ccc(OCC4CCCO4)cc3)sc2c1 (configuration not stated),active: 14.6 µM,–
c1cnc(N2CCN(Cc3ccc4c(c3)OCO4)CC2)nc1,"inconclusive: 23.1 µM [inhibitor, single point]",–
Cc1ccc(C(=O)/C=C/c2cn(CC(O)CN3CCCCCC3)c3ccccc23)cc1 (configuration not stated),active: 20.6 µM,–
CC1Cc2ccccc2N1C(=O)CN(C)S(=O)(=O)c1cccc2cccnc12 (configuration not stated),"inconclusive: 29.1 µM [inhibitor, single point]",–
CCC1=C(c2ccc(C)cc2)S(=O)(=O)N=C1N1CCC(C(=O)NCc2ccc(C)cc2)CC1,"inconclusive: 25.9 µM [inhibitor, single point]",–
O=C(NNC(=O)c1cccc2ccccc12)c1ccc(Br)cc1,–,inactive: -22.3%
NC(=O)COC(=O)[C@H](Cc1c[nH]c2ccccc12)NC(=O)c1ccc(F)cc1,–,inactive: -8.61%
CN(C)S(=O)(=O)c1ccc(SCC(=O)Nc2ccc3c(c2)OCCO3)nc1,"inconclusive: 29.1 µM [inhibitor, single point]",–
C/C(=N/NC(=O)c1ccoc1C)c1ccc(NC(=O)c2ccncc2)cc1,"inconclusive: 14.6 µM [inhibitor, partial curve, poor fit]",–
CC1(C)CCC(=O)N2CC[C@H]3C[C@H](OC(=O)Nc4ccc(Br)cc4)C[C@@H]1[C@H]32,"inconclusive: 22.4 µM [inhibitor, single point] and inconclusive: 20.6 µM [inhibitor, single point]",–
O=C(c1csnn1)N1CCC2(CC1)CN(C(c1ccccc1)c1ccccc1)C2,"inconclusive: 23.1 µM [inhibitor, single point]",–
CCc1ccccc1NC(=O)c1cccc(N2C(=O)C3C4CCC(C4)C3C2=O)c1 (configuration not stated),"inconclusive: 14.6 µM [inhibitor, partial curve, poor fit]",–
COc1cc(/C=C2/C(=O)NN(c3cccc(C)c3)C2=O)cc([N+](=O)[O-])c1O,–,inactive: -1.67%
CCS(=O)(=O)c1nc(S(=O)(=O)c2ccc(C)cc2)c(N2CCOCC2)s1,–,inactive: 22%

SMILES,Potency,"activity change, negative = growth inhibition"
COC(=O)c1c(NC(=O)CC2SC(N)=NC2=O)sc2c1CCC(C(C)(C)C)C2 (configuration not stated),"inconclusive: 29.1 µM [inhibitor, single point]",–
COCCn1c(=NC(=O)c2ccc3c(c2)OCCO3)sc2cc(NC(C)=O)ccc21,"inconclusive: 16.4 µM [inhibitor, single point]",–
COc1cc(NS(=O)(=O)c2ccc(NC(=O)c3ccc(OC)c(Br)c3)cc2)nc(OC)n1,–,inactive: -10.5%
CC(C)(C)OC(=O)NCCc1nnc(SCC(=O)Nc2ccc(Br)cc2)o1,–,inactive: -17.7%
CCOc1ccccc1CSc1nc2ccccc2[nH]1,"inconclusive: 29.1 µM [inhibitor, single point]",–
OC[C@@H]1[C@@H](c2ccc(F)cc2)C(c2ccccc2)=NN1c1ccccc1,"inconclusive: 29.1 µM [inhibitor, single point]",–
Cc1ccccc1/C=N/n1c(-c2cc(-c3ccccc3)n[nH]2)n[nH]c1=S,active: 16.4 µM,–
Cc1onc(-c2ccccc2)c1C(=O)N1CCOCC1,–,inactive: -11%
CNc1n[nH]c(-c2ccccc2)n1,–,inactive: -4.13%
O=C(c1ccc2c(=O)n3c(nc2c1)CCCCC3)N1CCN(c2ccc(Cl)cc2)CC1,active: 18.4 µM,–
Oc1ccc2n[nH]nc2c1,"inconclusive: 32.6 µM [inhibitor, single point]",–
O=C(/C=C/c1cn(-c2ccccc2)nc1-c1ccccc1)Nc1ccc(C(=O)O)cc1,"inconclusive: 14.6 µM [inhibitor, partial curve]",–
COc1ccccc1NC(=O)/C(=N/OCc1ccc(F)cc1)C(C)=O,"inconclusive: 29.1 µM [inhibitor, single point]",–
CCC(CC)NCc1ccc2c(c1)c1ccccc1n2CC,active: 25.9 µM,–
COc1ccc(-c2nc3sc(CCNS(=O)(=O)c4c(C)cc(C)cc4C)c(C)n3n2)cc1,"inconclusive: 23.1 µM [inhibitor, single point]",–
Cc1ccc(C)c(CS(=O)(=O)c2cn(CC(=O)N3CCC(C)CC3)c3ccccc23)c1,active: 16.4 µM,–
Cc1cc(C)c(-c2csc(NC(=O)CCCc3nc4ccccc4c(=O)[nH]3)n2)c(C)c1,active: 8.2 µM,–
O=C(O)c1cccc(-n2cccc2/C=C2/NC(=O)N(Cc3ccccc3F)C2=O)c1,"inconclusive: 29.1 µM [inhibitor, single point]",–
CCNc1ncc2nc(-c3ccc(Cl)cc3)c(=O)n(-c3ccc(OC)cc3)c2n1,active: 13 µM,–
N=C1SCC(=O)N1c1ncc(Cc2ccccc2Cl)s1,"inconclusive: 20.6 µM [inhibitor, single point]",–
COc1ccccc1C(=O)N1CC2(C)CC1CC(C)(C)C2 (configuration not stated),"inconclusive: 20.6 µM [inhibitor, single point]",–
N#Cc1cccc(NC(=O)COC(=O)CCc2nc3ccccc3c(=O)[nH]2)c1,–,inactive: -5.72%
Cc1cccc(C(=O)O/N=C2\CCCc3ccccc32)c1,"inconclusive: 10.3 µM [inhibitor, partial curve]",–
O=[N+]([O-])c1ccccc1N/N=C/c1cccc(O)c1O,"inconclusive: 25.9 µM [inhibitor, partial curve, poor fit]",–
